Data on 115 sequences can be found in the BET-seq Pho4 binding data (Le et al. 2018).

Some of the results follow. These are noisy estimates, calculated here from bound and input reads.

The assay deals with T1, Pho4 (S. cerevisiae) (UniProt P07270).
T1 sequence: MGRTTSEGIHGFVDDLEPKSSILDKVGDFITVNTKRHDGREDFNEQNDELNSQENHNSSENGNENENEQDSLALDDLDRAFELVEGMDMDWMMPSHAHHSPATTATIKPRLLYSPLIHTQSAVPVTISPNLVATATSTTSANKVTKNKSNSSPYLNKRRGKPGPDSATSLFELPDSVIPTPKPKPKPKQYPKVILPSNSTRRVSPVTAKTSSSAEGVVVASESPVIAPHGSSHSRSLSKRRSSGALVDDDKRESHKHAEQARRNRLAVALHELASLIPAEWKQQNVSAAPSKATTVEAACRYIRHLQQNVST
Kind of assay: relative binding free energy (BET-seq); higher = weaker binding. The conditions noted are these: reference: library average.
On to ATGGACACGTGAAGTT, for which the “relative binding free energy” value is 0.3 kcal/mol.

With TTTTGCACGTGTTACA, the “relative binding free energy” value was 0.03 kcal/mol.

CTATGCACGTGTTTTG: the “relative binding free energy” value was -0.13 kcal/mol.

Consider AAATTCACGTGTGGGT, for which the “relative binding free energy” value is 0.24 kcal/mol.

TTTCACACGTGGGAAG: the “relative binding free energy” value came to 0 kcal/mol.

As to CATGTCACGTGTTTAA, the “relative binding free energy” value came out at 0.13 kcal/mol.

As to GGGCGCACGTGGGGAA, the “relative binding free energy” value is -0.1 kcal/mol.

With TTGCTCACGTGTAGTG, the “relative binding free energy” value stood at 0.2 kcal/mol.

With ATCTACACGTGAGGTT, the “relative binding free energy” value was 0.4 kcal/mol.

As for GTCTTCACGTGGTTGC, the “relative binding free energy” value stood at 0.29 kcal/mol.

Consider CGTGACACGTGTATGT, for which the “relative binding free energy” value is -0.16 kcal/mol.

Regarding GGTTGCACGTGGTAGC, the “relative binding free energy” value was 0.08 kcal/mol.

GAGTTCACGTGGGGTC: the “relative binding free energy” value amounted to 0.32 kcal/mol.

With CGTGCCACGTGTGTAG, the “relative binding free energy” value is -0.09 kcal/mol.

On to GGGGTCACGTGAAGCG, for which the “relative binding free energy” value amounted to 0.4 kcal/mol.

For the sequence AGCGGCACGTGATGTA, the “relative binding free energy” value is -0.06 kcal/mol.

For TGAGTCACGTGTGAAA, the “relative binding free energy” value amounted to 0.12 kcal/mol.

For TGTGGCACGTGTTCAA, the “relative binding free energy” value is -0.15 kcal/mol.

Regarding TAGGGCACGTGTCAAG, the “relative binding free energy” value was -0.1 kcal/mol.

Turning to CGGGTCACGTGAAAGG, the “relative binding free energy” value was 0.24 kcal/mol.

Turning to ATCTGCACGTGGTTTA, the “relative binding free energy” value is -0.07 kcal/mol.

Consider TGGTACACGTGTGTGC, for which the “relative binding free energy” value was -0.01 kcal/mol.

For TAGGTCACGTGACGTG, the “relative binding free energy” value was 0.01 kcal/mol.

For TGAGTCACGTGAAGAT, the “relative binding free energy” value is 0.34 kcal/mol.

As for GGCTACACGTGTTGGT, the “relative binding free energy” value is 0.18 kcal/mol.

Regarding TATAACACGTGGCGGG, the “relative binding free energy” value is -0.07 kcal/mol.

For TAGCACACGTGGAGTT, the “relative binding free energy” value worked out at 0.13 kcal/mol.

As for CTTTGCACGTGTTTCG, the “relative binding free energy” value is -0.04 kcal/mol.

In the case of AGGGCCACGTGTTAGG, the “relative binding free energy” value was -0.17 kcal/mol.

For GAAGTCACGTGGTCAT, the “relative binding free energy” value was found to be 0.14 kcal/mol.

For the sequence TAGTTCACGTGAATTA, the “relative binding free energy” value came out at 0.34 kcal/mol.

Consider AGGGCCACGTGTCGGA, for which the “relative binding free energy” value is -0.06 kcal/mol.

With GCGAGCACGTGGGAGT, the “relative binding free energy” value was -0.09 kcal/mol.

For the sequence CGTTACACGTGGTAGA, the “relative binding free energy” value came out at 0.1 kcal/mol.

In the case of TAGCGCACGTGGCGGT, the “relative binding free energy” value was -0.26 kcal/mol.

Take TGTGTCACGTGGCGGC: the “relative binding free energy” value is -0.08 kcal/mol.

Turning to AATTACACGTGCTGGT, the “relative binding free energy” value was determined as 0.11 kcal/mol.

On to TATTTCACGTGTTGCG, for which the “relative binding free energy” value worked out at 0.3 kcal/mol.

As for TACGGCACGTGAGGGA, the “relative binding free energy” value was 0.07 kcal/mol.

As to AAGGTCACGTGAGCGG, the “relative binding free energy” value was determined as 0.3 kcal/mol.

TTATTCACGTGATTCG: the “relative binding free energy” value is 0.22 kcal/mol.

On to TCGTACACGTGGAGTT, for which the “relative binding free energy” value was 0.18 kcal/mol.

With AGAATCACGTGTAGTT, the “relative binding free energy” value worked out at 0.2 kcal/mol.

GGATGCACGTGTAATT: the “relative binding free energy” value was 0.16 kcal/mol.

As to AATCTCACGTGTGGTT, the “relative binding free energy” value turned out to be 0.31 kcal/mol.

In the case of AGTTTCACGTGATTCA, the “relative binding free energy” value came to 0.33 kcal/mol.

As to TTGTGCACGTGTATCG, the “relative binding free energy” value was -0.02 kcal/mol.

Turning to ATTAGCACGTGGTTAG, the “relative binding free energy” value was -0.07 kcal/mol.

For the sequence TGGTTCACGTGTAATT, the “relative binding free energy” value was determined as 0.3 kcal/mol.

Consider GTCGTCACGTGGGCGT, for which the “relative binding free energy” value was 0.05 kcal/mol.

With ATTCGCACGTGGAATG, the “relative binding free energy” value is 0.06 kcal/mol.

As to TGGGCCACGTGCGATG, the “relative binding free energy” value was -0.07 kcal/mol.

Regarding GAATTCACGTGATAGG, the “relative binding free energy” value was determined as 0.38 kcal/mol.

CGGTGCACGTGAATTG: the “relative binding free energy” value was found to be 0.22 kcal/mol.

Turning to TATAACACGTGAGGGG, the “relative binding free energy” value worked out at 0.13 kcal/mol.

For GTGCTCACGTGGTCTT, the “relative binding free energy” value turned out to be 0.07 kcal/mol.

Regarding GGGGGCACGTGTATCA, the “relative binding free energy” value is -0.06 kcal/mol.

Consider ATTTGCACGTGTATGA, for which the “relative binding free energy” value is 0.2 kcal/mol.

As to GGGTCCACGTGTATAT, the “relative binding free energy” value was 0.09 kcal/mol.

For TGATTCACGTGGTGGT, the “relative binding free energy” value was 0.31 kcal/mol.

With ATGGGCACGTGTTATC, the “relative binding free energy” value was -0.13 kcal/mol.

Consider GGCAACACGTGAGGTT, for which the “relative binding free energy” value came to 0.27 kcal/mol.

As for TGTGCCACGTGGTGGC, the “relative binding free energy” value is -0.06 kcal/mol.

With TACAACACGTGGTTGT, the “relative binding free energy” value was determined as 0.1 kcal/mol.

On to TTACTCACGTGGGTAG, for which the “relative binding free energy” value came to 0.07 kcal/mol.

As to ACGTGCACGTGATAGT, the “relative binding free energy” value worked out at 0.08 kcal/mol.

Regarding TTCTGCACGTGGATTA, the “relative binding free energy” value is -0.03 kcal/mol.

On to ATTGTCACGTGCATGT, for which the “relative binding free energy” value came to 0.07 kcal/mol.

Regarding TCTTGCACGTGGATTG, the “relative binding free energy” value stood at 0.02 kcal/mol.

Take GTAATCACGTGGGGCT: the “relative binding free energy” value is 0.04 kcal/mol.

Turning to TTACGCACGTGGGCGG, the “relative binding free energy” value was -0.26 kcal/mol.

Take AAAGGCACGTGTAGCG: the “relative binding free energy” value came out at 0.09 kcal/mol.

Take ATGTGCACGTGACTTT: the “relative binding free energy” value worked out at 0.02 kcal/mol.

Regarding TATAGCACGTGTGGGG, the “relative binding free energy” value was 0.01 kcal/mol.

On to GTCGACACGTGTTTTA, for which the “relative binding free energy” value was determined as 0.22 kcal/mol.

For the sequence CATGTCACGTGCTTTG, the “relative binding free energy” value was found to be 0.14 kcal/mol.

As to CGTTGCACGTGGATTG, the “relative binding free energy” value was -0.1 kcal/mol.

For the sequence GTCTTCACGTGGAGCG, the “relative binding free energy” value came out at 0.34 kcal/mol.

As for TGGTCCACGTGGTATA, the “relative binding free energy” value was -0.01 kcal/mol.

For TTTGACACGTGGTAGC, the “relative binding free energy” value was -0.11 kcal/mol.

On to GCTTGCACGTGGGTGG, for which the “relative binding free energy” value is -0.12 kcal/mol.

In the case of TTATGCACGTGCCTGG, the “relative binding free energy” value was -0.21 kcal/mol.

As to AGAAGCACGTGAGTGG, the “relative binding free energy” value came out at 0.19 kcal/mol.

Turning to CGTTCCACGTGGTCGG, the “relative binding free energy” value is 0.1 kcal/mol.

Regarding TTGTCCACGTGGGAAG, the “relative binding free energy” value came to 0.07 kcal/mol.

Consider TCAGTCACGTGGGAAT, for which the “relative binding free energy” value came to 0.13 kcal/mol.

On to GTAAACACGTGAGGCT, for which the “relative binding free energy” value is 0.39 kcal/mol.

On to AGCTTCACGTGATGTG, for which the “relative binding free energy” value came out at 0.34 kcal/mol.

In the case of GAGGGCACGTGCTTGG, the “relative binding free energy” value came to 0 kcal/mol.

On to CTTTGCACGTGAAAGG, for which the “relative binding free energy” value is 0.26 kcal/mol.

Regarding TGAGTCACGTGATGGC, the “relative binding free energy” value was determined as 0.18 kcal/mol.

Consider GTCGACACGTGTGAGT, for which the “relative binding free energy” value stood at 0.02 kcal/mol.

TGTTCCACGTGTTAAA: the “relative binding free energy” value stood at 0.22 kcal/mol.

With TGGGCCACGTGGAGTG, the “relative binding free energy” value was -0.09 kcal/mol.

Consider CTAGTCACGTGGTTGA, for which the “relative binding free energy” value was found to be 0.02 kcal/mol.

With GGGGTCACGTGTCGTG, the “relative binding free energy” value was determined as 0.31 kcal/mol.

For the sequence TCAATCACGTGGTTTA, the “relative binding free energy” value was 0.09 kcal/mol.

Regarding TATGGCACGTGGATTA, the “relative binding free energy” value is -0.08 kcal/mol.

Regarding GTGTTCACGTGAACGG, the “relative binding free energy” value is 0.35 kcal/mol.

In the case of ATCTTCACGTGTGCGG, the “relative binding free energy” value turned out to be 0.19 kcal/mol.

Consider TATAGCACGTGTGGAA, for which the “relative binding free energy” value is 0 kcal/mol.

In the case of GAATTCACGTGTGGAT, the “relative binding free energy” value is 0.23 kcal/mol.

TGGTACACGTGTCTGC: the “relative binding free energy” value was determined as 0.1 kcal/mol.

As for CTGAACACGTGGAGGG, the “relative binding free energy” value was -0.12 kcal/mol.

As to TATCTCACGTGGTTTT, the “relative binding free energy” value is 0.12 kcal/mol.

As for GCAGGCACGTGCTGGG, the “relative binding free energy” value is -0.12 kcal/mol.

As for AGGAACACGTGGATGG, the “relative binding free energy” value amounted to 0.09 kcal/mol.

Consider AGGAGCACGTGCGGTA, for which the “relative binding free energy” value was -0.23 kcal/mol.

For the sequence CGAAGCACGTGGTATG, the “relative binding free energy” value was -0.12 kcal/mol.

On to TCGTACACGTGATGTT, for which the “relative binding free energy” value was determined as 0.29 kcal/mol.

Take AAAGGCACGTGATTTT: the “relative binding free energy” value was -0.04 kcal/mol.

Consider CGGGGCACGTGAGATA, for which the “relative binding free energy” value amounted to 0.15 kcal/mol.

With AGGAACACGTGTTGTG, the “relative binding free energy” value was 0.04 kcal/mol.

On to TGTGTCACGTGCGGAG, for which the “relative binding free energy” value came to 0.02 kcal/mol.

In the case of CTGGGCACGTGGCGGT, the “relative binding free energy” value was -0.24 kcal/mol.
